Measured values from PubChem BioAssay AID894 (National Center for Advancing Translational Sciences (NCATS), 2007).
Out of some 150,000 compounds screened, about 6,500 (4.3%) were called active. The inconclusive results got no clear call from the source; some entries with a clear call stand among them for comparison. Calls follow the shape of the dose curve; as a rule, active = well fitted inhibition curve with a large enough effect (not every such curve was filed as active); inconclusive = small, poorly fitted or top-dose-only effect, or another doubt; inactive = no such curve, though single readings can be large or run the other way. No potency is given beside an inconclusive call; the fits are too rough.

What follows are compounds tested against 15-hydroxyprostaglandin dehydrogenase [NAD(+)] (Homo sapiens) (UniProt P15428) (assay: qHTS Assay for Inhibitors of HPGD (15-Hydroxyprostaglandin Dehydrogenase)). Conditions: purified HPGD, NADH fluorescence kinetic, PGE2 substrate; activity change, negative = inhibition: stronger effect = lower value.
UniProt P15428, sequence (P15428 whole entry, looked up): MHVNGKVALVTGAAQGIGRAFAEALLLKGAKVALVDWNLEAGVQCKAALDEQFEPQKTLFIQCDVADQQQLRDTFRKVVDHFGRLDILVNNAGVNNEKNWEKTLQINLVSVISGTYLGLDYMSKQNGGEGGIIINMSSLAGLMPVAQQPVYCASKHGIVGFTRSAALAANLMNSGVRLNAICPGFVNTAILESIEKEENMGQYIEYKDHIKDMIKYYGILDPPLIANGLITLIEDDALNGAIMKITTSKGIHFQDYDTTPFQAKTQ
How it was run: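 NADH formation kinetics: reaction with 30 uM PGE2 and 1 mM NAD+ (final), 20 nM enzyme, Tris-HCl pH 8 with Tween 20, after 15 min compound preincubation at room temperature. Fluorescence change, last versus first of five reads.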
% is scaled to controls: 0 for no effect and ±100 for the full control effect; potency is read from the fitted curve at half-maximal effect; tags tell the direction and shape of the fitted curve.

SMILES	activity change, negative = inhibition	Potency
CC(C)C(NC(=O)C12CC3CC(CC(C3)C1)C2)C(=O)O (stereo unspecified)	inactive: -3.94%	
CCOC(=O)c1sc(NC(=O)c2ccc(Br)o2)cc1C		inconclusive [inhibitor, partial curve]
Cc1cc(C)c2oc(-c3cccc(NC(=O)c4ccc(F)cc4)c3)nc2c1		inconclusive [inhibitor, partial curve, poor fit]
Cc1cc2nc(-c3ccc(SCc4ccc(C#N)cc4)nc3)[nH]c2cc1C		inconclusive [inhibitor, single point]
CCCCn1nnnc1NCc1ccc(N(CC)CC)cc1	inactive: 1.64%	
CN(Cc1ccccc1)S(=O)(=O)c1ccc2c(c1)OCCO2		inconclusive [inhibitor, single point]
N#Cc1ccccc1Sc1ccccc1C(=O)Nc1ccc2ccccc2c1		inconclusive [inhibitor, single point]
CCCNC(=O)Nc1ccc2c(c1)N(C)C(=O)c1ccccc1S2		inconclusive [inhibitor, partial curve]
Fc1ccc(Nc2nc(Oc3ccc4c(c3)OCO4)nc(N3CCOCC3)n2)c(F)c1	inactive: -3.88%	
O=C(Nc1nccs1)c1cc2c(s1)CCCCC2		inconclusive [inhibitor, partial curve]
CC1=N/C(=C/c2ccc([N+](=O)[O-])cc2)C(=O)N1c1ccc(Cl)cc1Cl		inconclusive [inhibitor, partial curve]
Cc1ccc2[nH]c3c(N4CCc5ccccc5C4)ncnc3c2c1	inactive: -25%	
O=C(COC(=O)c1ccccc1NS(=O)(=O)c1ccc(Cl)cc1)NCc1ccccc1		inconclusive [inhibitor, partial curve]
N#Cc1c2c(c(NCCN3CCOCC3)n3c1nc1ccccc13)CCCC2		inconclusive [inhibitor, partial curve]
Cn1c(C(=O)NCCC2=CCCCC2)cc2c(=O)n3ccccc3nc21		inconclusive [inhibitor, partial curve, poor fit]
COc1cc(OC)cc(C(=O)N/N=C/c2ccc(OC)c(COc3ccc4ccccc4c3)c2)c1		inconclusive [inhibitor, partial curve]
COc1ccc(C(=O)N2CCCC(c3ccccc3)C2)cc1 (stereo unspecified)		active: 15.8 µM
CCc1cc2c(=O)c(-c3cnn(-c4ccccc4)c3)coc2c(CN2CCOCC2)c1O		inconclusive [inhibitor, single point]
O=[N+]([O-])c1ccc(O)c(NC(=S)Nc2ccccc2)c1		inconclusive [inhibitor, single point]
CCN(CC)S(=O)(=O)c1ccc2oc(C(=O)N3CCOCC3)c(C)c2c1		inconclusive [inhibitor, single point]
Cc1cccc(-c2nnc(SCCOc3ccc4c(C)cc(=O)oc4c3)o2)c1		inconclusive [inhibitor, partial curve]
Cc1ccc(CNC(=O)CCC(=O)c2cccs2)cc1		inconclusive [inhibitor, partial curve]
COCCCNC(=O)c1cccc(OC)c1OC		active: 7.08 µM
CCN(/N=C/c1ccc(N(C)C)cc1)c1nc2ccccc2[nH]1		inconclusive [inhibitor, partial curve]

SMILES	activity change, negative = inhibition	Potency
COc1ccc(NC(=O)COC(=O)C2CCCCC2)c([N+](=O)[O-])c1		inconclusive [inhibitor, single point]
Cc1ccccc1N=C1N=C(N)c2ccccc21	inactive: -0.546%	
O=C(CN1CCN(CCN2C(=O)c3cccc4cccc(c34)C2=O)CC1)c1ccc(F)cc1		inconclusive [inhibitor, partial curve]
O=C(Cn1c(=O)c(=O)n(Cc2ccccc2)c2ccc(Cl)cc21)Nc1cccc(F)c1		inconclusive [inhibitor, partial curve]
CCC(C)NC(=O)/C=C1\Sc2ccccc2NC1=O (stereo unspecified)		inconclusive [inhibitor, single point]
COc1ccccc1-c1cc(C(=O)NC(C)C)no1		inconclusive [inhibitor, partial curve, poor fit]
Cn1c(=O)c2c(nc(Oc3ccc(-c4ccccc4)cc3)n2C)n(C)c1=O	inactive: -10.8%	
COc1ccc2c(c1OC)C(=O)N(c1ccccn1)C2		inconclusive [inhibitor, partial curve]
c1ccc2[nH]c(CN3CCOCC3)nc2c1		inconclusive [inhibitor, partial curve]
Cc1ccc(C(=O)NCc2ccccn2)c(Cl)c1		active: 14.1 µM
COn1c(-n2nc(C)cc2C)nc2ccccc2c1=O	inconclusive: -33.9% [inhibitor]	
COc1cc(CNc2ccccc2SC)ccc1O		inconclusive [inhibitor, single point]
COc1ccc(-c2ccc(-c3noc(C4CCCCC4)n3)c(OC)n2)cc1		inconclusive [inhibitor, partial curve]
CC(C)c1ccc(S(=O)(=O)c2nnn3c2nc(N2CCCCC2)c2ccccc23)cc1		inconclusive [inhibitor, partial curve]
CC(C)NC(=O)COC(=O)c1cc(=O)[nH]c2ccccc12		inconclusive [inhibitor, partial curve]
Cc1cc(=O)oc2cc(OC(C)C(=O)N3CCOCC3)ccc12 (stereo unspecified)		inconclusive [inhibitor, partial curve]
COc1ccc(C(=O)NC(=S)NNC(=O)c2cnccn2)cc1		inconclusive [inhibitor, partial curve]
O=C1OC(c2ccccc2)/C(=C(/O)c2ccc(Cl)cc2)C1=O (stereo unspecified)		active: 35.5 µM
COc1ccc(C(=O)N2CC3(CC(c4cccc([N+](=O)[O-])c4)=NO3)C[C@H]2C(=O)NCC(N)=O)cc1 (stereo partly specified)		inconclusive [inhibitor, single point]
Cc1ccc(O)c(C(=O)c2cnc3c(c2)c(C)nn3-c2ccccc2)c1		inconclusive [inhibitor, single point]
CCC(NC(=O)c1ccccc1NC(=O)c1ccccc1)C(=O)O (stereo unspecified)	inactive: -8.84%	
c1ccc2cc3c(NCCN4CCOCC4)ccnc3cc2c1		inconclusive [inhibitor, partial curve]
COc1ccc(OC)c(C(=O)c2coc3ccc(O)cc23)c1		active: 31.6 µM
CCCCN(CC)S(=O)(=O)c1ccc(C(=O)Nc2nnc(CSC)o2)cc1	inactive: -13.9%	

SMILES	activity change, negative = inhibition	Potency
O=C1NC(c2cccs2)Nc2sc3c(c21)CCCC3 (stereo unspecified)		inconclusive [inhibitor, partial curve]
O=C(c1cc(-c2ccc3c(c2)OCO3)on1)N1CCN(c2ccccc2)CC1		inconclusive [inhibitor, partial curve]
CCOCCCNC(=S)NCCNc1nc2c(C)cccc2cc1C#N		inconclusive [inhibitor, partial curve]
Cn1c(N)c(C(=O)COC(=O)c2ccnc3ccccc23)c(=O)n(C)c1=O		inconclusive [inhibitor, single point]
CC1(C)CC(=O)C2=C(C1)N(c1cccc(O)c1)C1=C(C2)C(=O)CC(C)(C)C1		inconclusive [inhibitor, single point]
COc1ccc(OC)c(S(=O)(=O)N2CCC(C(=O)NCCC3=CCCCC3)CC2)c1	inactive: -10.5%	
CC(=O)c1c(C)n(-c2ccccc2)c2ccc(O)cc12		active: 5.01 µM
CCOc1ccc(/C=N/NC(=O)Cc2csc(Nc3cccc(C(F)(F)F)c3)n2)cc1		inconclusive [inhibitor, single point]
Cc1no[n+]([O-])c1COc1cccc(/C=C2\N=C(c3ccccc3)OC2=O)c1		inconclusive [inhibitor, partial curve]
COc1ccc2nc(NC(=O)c3ccc(Br)s3)sc2c1		inconclusive [inhibitor, partial curve]
Cn1c(=O)[nH]c(=O)c2c1nc(Br)n2Cc1ccccc1Cl	inactive: -20.2%	
CCCc1ccc(OCCNC(C)=O)cc1	inactive: -13.7%	
COc1ccc(-c2ccc(C(=S)N3CCN(C(C)=O)CC3)o2)cc1		active: 11.2 µM
Cc1ccc(/C=C2/NC(=O)N(Cc3ccccc3)C2=O)o1		active: 25.1 µM
C[C@@H]1CCN=C(N)S1	inactive: -4.05%	
CCOC(=O)c1sc(NC(=O)c2ccco2)c(C#N)c1C		inconclusive [inhibitor, single point]
Fc1ccc(-c2cc(C(F)(F)F)nc(NCC3CCCO3)n2)cc1 (stereo unspecified)		inconclusive [inhibitor, single point]
COc1ccc(/C=N/Nc2nc(C)c([N+](=O)[O-])c(N(C)c3ccccc3)n2)cc1OC	inactive: -21.1%	
O=C(/C=C/c1ccco1)NC(=S)Nc1ccccn1		active: 15.8 µM
Cc1oc2c(O)c(O)ccc2c(=O)c1-c1cnn(-c2ccccc2)c1		active: 17.8 µM
CCOc1ccc(/C=N/OCC(=O)NCc2cccs2)cc1		active: 15.8 µM
O=C(CCc1nc(-c2ccccc2F)no1)NC1CCCCCC1		active: 28.2 µM
CCCSC1=N/C(=C/c2ccsc2)C(=O)N1c1ccccc1	inactive: -18.5%	
